Assay results published in PubChem BioAssay AID894 (National Center for Advancing Translational Sciences (NCATS), 2007).
Several values for one entry are separate records, joined by “and”; a condition that tells them apart may be missing. Equal entries are not always repeated. Hit rate of the full screen: of about 150,000 compounds, about 6,500 (4.3%) were called active. The inconclusive results got no clear call from the source; some entries with a clear call stand among them for comparison. Calls come from the whole dose curve; as a rule, active = well fitted inhibition curve with a large enough effect (not every such curve was filed as active); inconclusive = small, poorly fitted or top-dose-only effect, or another doubt; inactive = no such curve, though single readings can be large or run the other way. Where the call is inconclusive, the potency comes from a doubtful curve fit.

What follows are compounds tested against 15-hydroxyprostaglandin dehydrogenase [NAD(+)] (Homo sapiens) (UniProt P15428) (assay: qHTS Assay for Inhibitors of HPGD (15-Hydroxyprostaglandin Dehydrogenase)). Details: purified HPGD, NADH fluorescence kinetic, PGE2 substrate; activity change, negative = inhibition: active compounds read low.
UniProt P15428, sequence (P15428 whole entry, looked up): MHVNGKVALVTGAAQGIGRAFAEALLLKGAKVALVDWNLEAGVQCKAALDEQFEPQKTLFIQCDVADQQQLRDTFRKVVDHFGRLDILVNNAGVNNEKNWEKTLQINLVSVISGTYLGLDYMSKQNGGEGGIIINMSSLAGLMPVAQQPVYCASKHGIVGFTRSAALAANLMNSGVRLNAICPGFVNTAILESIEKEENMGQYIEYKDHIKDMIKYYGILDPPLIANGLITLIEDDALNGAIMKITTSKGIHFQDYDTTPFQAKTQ
Outline: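 NADH formation kinetics: reaction with 30 uM PGE2 and 1 mM NAD+ (final), 20 nM enzyme, Tris-HCl pH 8 with Tween 20, after 15 min compound preincubation at room temperature. Fluorescence change, last versus first of five reads.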
% is set by controls: 0 for no effect and ±100 for the full control effect; potency is the fitted concentration of half-maximal effect; tags give direction and shape of the fitted curve.

Row | Structure (SMILES) | activity change, negative = inhibition | Potency
1 | CCOC(=O)C1=C(C)C(c2ccccc2OC)NC(=S)N1 (configuration not stated) | inactive: -9.57% | 
2 | O=c1oc2ccccc2cc1-c1nc2ccccc2o1 |  | inconclusive: 28.2 µM [inhibitor, partial curve]
3 | CCCCCCOc1ccc(-c2ccc(C#N)cn2)cc1 |  | inconclusive: 31.6 µM [inhibitor, partial curve]
4 | Cc1nc(NCc2ccccc2)c2nc(-c3ccccc3)n(CCN3CCCCC3)c2n1 |  | inconclusive: 28.2 µM [inhibitor, partial curve]
5 | O=C(NCc1ccccc1)C1CCC(CNc2c(N3CCCCC3)c(=O)c2=O)CC1 (configuration not stated) |  | active: 20 µM
6 | COc1ccc(/C=N/NC(=O)c2cc(-c3ccccc3OC)nc3ccccc23)cc1COC(C)=O |  | inconclusive: 39.8 µM [inhibitor, single point]
7 | N#Cc1c(NC(=O)C2CCCO2)sc2c1CCCCCC2 (configuration not stated) |  | inconclusive: 22.4 µM [inhibitor, partial curve]
8 | c1ccc2[nH]c(CSc3nc4ccccc4o3)nc2c1 |  | inconclusive: 31.6 µM [inhibitor, partial curve]
9 | CC1(C)Cc2nc3oc4c(N(CCO)Cc5ccccc5)ncnc4c3cc2CO1 |  | inconclusive: 31.6 µM [inhibitor, single point]
10 | Cc1ccc(/C=N/NC(=O)CSCc2ccc(Cl)cc2)cc1 | inactive: -11.2% | 
11 | CC(C(=O)N1CCCCC1)n1sc2ccccc2c1=O (configuration not stated) |  | active: 3.55 µM
12 | Cc1ccsc1C1C2=C(CCCC2=O)Nc2ncnn21 (configuration not stated) | inactive: -23.3% | 
13 | Cc1ccc(-n2c(N)c(-c3nc4ccccc4n3C)sc2=S)cc1 |  | active: 6.31 µM
14 | COc1cc(NC(=O)Cn2c(-c3cncs3)nc3ccccc32)cc(OC)c1OC |  | inconclusive: 28.2 µM [inhibitor, partial curve]
15 | Cc1ccnc(NC(=O)CSc2cc(=O)n(C)c3ccccc23)c1 |  | inconclusive: 17.8 µM [inhibitor, partial curve]
16 | COc1cccc(C(=O)/C=C/Nc2ccc(S(=O)(=O)Nc3cccc(C(C)=O)c3)cc2)c1 |  | inconclusive: 28.2 µM [inhibitor, partial curve]
17 | CCC(=O)Oc1ccc2c(C)c(Cl)c(=O)oc2c1 |  | inconclusive: 35.5 µM [inhibitor, single point]
18 | Cc1nn2c(N3CCN(c4ccccn4)CC3)cc(C(C)C)nc2c1-c1ccccc1 |  | inconclusive: 28.2 µM [inhibitor, partial curve]
19 | Cc1ccc(-c2ccc(=O)n(CC(=O)N3CCN(c4cc(Cl)ccc4C)CC3)n2)cc1 | inactive: -11.1% | 
20 | CCN(CC)C(=O)CSc1nc2ccccc2c(=O)[nH]1 |  | active: 8.91 µM
21 | O=C1Nc2ccc(Br)cc2C1=Nc1ccc(-c2nnc3n2CCCCC3)cc1 |  | active: 3.98 µM
22 | COc1ccc2c(c1)cc1n2CCN=C1N |  | inconclusive: 31.6 µM [inhibitor, single point]
23 | CCCn1c(=O)c2[nH]c(-c3ccc(OCC(=O)NCCN)cc3)nc2n(CCC)c1=O |  | inconclusive: 22.4 µM [inhibitor, partial curve]
24 | CCC(=O)N1CCc2cc(Br)cc(S(=O)(=O)CCC(=O)NCc3ccco3)c21 | inactive: -7.19% | 

Row | Structure (SMILES) | activity change, negative = inhibition | Potency
25 | CC(C)OCCCn1c(-c2ccco2)nc2nc3ccccc3nc21 |  | inconclusive: 28.2 µM [inhibitor, partial curve]
26 | c1cncc(-c2csc(NCc3ccco3)n2)c1 |  | active: 14.1 µM
27 | c1coc(-c2nc3c([nH]2)CCc2nonc2-3)c1 |  | inconclusive: 31.6 µM [inhibitor, single point]
28 | CCN(c1ccccc1)c1ncnc2c1cnn2-c1ccccc1 |  | inconclusive: 15.8 µM [inhibitor, partial curve, poor fit]
29 | Cc1cc2cc3c(cc2nc1SCC(=O)OC(C)C)OCO3 |  | inconclusive: 14.1 µM [inhibitor, partial curve]
30 | COc1cc2c(cc1NC(=O)C(C)N1CCN(S(=O)(=O)c3ccc(C)c(C)c3)CC1)oc1ccccc12 (configuration not stated) |  | inconclusive: 22.4 µM [inhibitor, partial curve]
31 | COc1ccc(/C=C/C(=O)Nc2ccc(-c3nnc4n3CCCCC4)cc2)c(OC)c1 |  | inconclusive: 4.47 µM [inhibitor, partial curve]
32 | Cc1cc(C)c2c(CC(=O)N(CCC#N)Cc3cccnc3)coc2c1 | inactive: -14.6% | 
33 | CNc1oc(-c2cccc3ccccc23)nc1C#N |  | inconclusive: 5.62 µM [inhibitor, partial curve]
34 | COC(=O)c1ccc(CNC(=O)COC(=O)C23CC4CC(CC(C4)C2)C3)cc1 | inactive: -9.06% | 
35 | S=c1[nH]nc(COc2ccccc2)n1Cc1ccccc1 |  | inconclusive: 15.8 µM [inhibitor, partial curve]
36 | CCOC(=O)CCSc1nc2c(c(C(F)(F)F)c1C#N)CCC2 |  | inconclusive: 25.1 µM [inhibitor, partial curve]
37 | Cc1occc1-c1nnc(SCC(=O)NCCc2ccccc2)n1C(C)c1ccccc1 (configuration not stated) |  | inconclusive: 25.1 µM [inhibitor, partial curve]
38 | COc1ccc2nc3oc(C(=O)N4CCN(c5cccc(C(F)(F)F)c5)CC4)cc3cc2c1 | inactive: -24.7% | 
39 | CC1CCC(C(C)C)C(OP(=O)(c2ccc(N(C)C)cc2)C(O)c2cccnc2)C1 (configuration not stated) | inactive: -1.53% | 
40 | COc1ccc(NC2=CC(c3cccc(OC)c3)N(c3ccc(OC)cc3)C2=O)cc1 (configuration not stated) |  | inconclusive: 39.8 µM [inhibitor, single point]
41 | Cc1cccc(Nc2nc3c(S(=O)(=O)c4ccccc4)nnn3c3ccccc23)c1C |  | inconclusive: 28.2 µM [inhibitor, partial curve]
42 | COc1ccc(S(=O)(=O)Nc2ccc(O)c3ccccc23)cc1 |  | inconclusive: 1.58 µM [inhibitor, full curve]
43 | c1cncc(CNc2ncnc3ccc(-c4cccnc4)cc23)c1 |  | inconclusive: 25.1 µM [inhibitor, partial curve]
44 | O=c1c2cc(Cl)ccc2[nH]c(=S)n1Cc1ccco1 | inactive: -19.7% | 
45 | Oc1ccc(-c2n[nH]c(=S)n2-c2ccc3c(c2)OCCO3)cc1 |  | active: 20 µM
46 | O=C(c1ccccc1)N1CCC(c2nc3c(nnn3Cc3ccco3)c(=O)[nH]2)CC1 |  | active: 14.1 µM
47 | CC(C)(C)NS(=O)(=O)c1ccc(OCC(=O)Nc2ccc3c(c2)OCCO3)cc1 | inactive: -5.43% | 
48 | CC(C)Cc1c2c([nH]c(=S)c1C#N)CCCC2 |  | active: 22.4 µM

Row | Structure (SMILES) | activity change, negative = inhibition | Potency
49 | Oc1ccc(Br)cc1-c1nc2cnccn2c1NC1CCCC1 | inactive: -1.62% | 
50 | CCCOc1ccc(C(=O)NCc2ccco2)cc1 |  | inconclusive: 28.2 µM [inhibitor, single point]
51 | COc1cc2c(cc1NC(=O)Nc1cccc(C)c1)oc1ccccc12 |  | inconclusive: 31.6 µM [inhibitor, partial curve]
52 | Cc1cccc(N2C(=O)CC(N3CCC(c4nc5ccccc5[nH]4)CC3)C2=O)c1 (configuration not stated) | inactive: -11.3% | 
53 | Cc1ccc(C)c(OCCn2cc(/C=C(\C#N)C(=O)NCC3CCCO3)c3ccccc32)c1 (configuration not stated) |  | inconclusive: 4.47 µM [inhibitor, full curve]
54 | CCCS(=O)(=O)c1nnnn1-c1cccc(OC)c1 |  | active: 22.4 µM
55 | CCOC(=O)Cn1c(=O)oc2cc(S(=O)(=O)N3CCN(C(=O)c4ccco4)CC3)ccc21 | inactive: -7.3% | 
56 | O=S(=O)(NCCOCC(F)(F)F)c1ccc2oc3ccccc3c2c1 |  | inconclusive: 39.8 µM [inhibitor, partial curve]
57 | O=C(/C=C/c1ccco1)N1CCN(C/C=C/c2ccccc2)CC1 | inactive: -22.6% | 
58 | COc1ccc2[nH]c3nc(SCc4nnc(-c5ccc(C)cc5)o4)nnc3c2c1 | inactive: -4.28% | 
59 | CCOC(=O)c1[nH]c(C)c(C(=O)c2cc(F)ccc2F)c1C |  | inconclusive: 28.2 µM [inhibitor, partial curve]
60 | CN(C)/C=C1\C(=O)N(c2ccc(Cl)cc2)CS1(=O)=O |  | active: 15.8 µM
61 | CCCCCCC=O | inactive: -3.26% | 
62 | Cc1ccc(N=c2ssnc2Cl)cc1 |  | active: 2.82 µM
63 | CC1CCN(C(=O)COC(=O)c2cc(Cl)cc(Cl)c2N)CC1 |  | inconclusive: 14.1 µM [inhibitor, partial curve]
64 | O=C(O)c1ccc(COc2ccccc2[N+](=O)[O-])o1 | inactive: -11.8% | 
65 | CCOC(=O)c1ccc(NC(=O)C(=O)NCc2ccncc2)cc1 | inactive: -27.7% | 
66 | Nc1ccc2oc(-c3ccccc3Cl)cc(=O)c2c1O |  | inconclusive: 10 µM [inhibitor, partial curve, poor fit] and inconclusive: 44.7 µM [inhibitor, partial curve]
67 | Cc1nn2c(Nc3ccccc3)c3c(nc2c1-c1ccccc1)CCC3 |  | inconclusive: 28.2 µM [inhibitor, partial curve]
68 | Cc1cc(SCC(=O)NN=C2CCN(C(C)C)CC2)c(C)cc1Br |  | active: 25.1 µM
69 | Cc1ccc(S(=O)(=O)N[C@H](C(=O)Oc2ccc3c(C(F)(F)F)cc(=O)oc3c2)c2ccccc2)cc1 |  | inconclusive: 20 µM [inhibitor, partial curve]
70 | Cc1ccc(C2=C(Cl)C(=O)C(c3ccc(C)cc3)=C(Cl)C2=O)cc1 |  | active: 2.24 µM
71 | O=[N+]([O-])c1cc(C(F)(F)F)ccc1Sc1ccc2ccccc2n1 |  | active: 15.8 µM
72 | COc1ccc(-n2c(N)c(C(=O)NCC3CCCO3)c3nc4ccccc4nc32)c(OC)c1 (configuration not stated) |  | inconclusive: 25.1 µM [inhibitor, partial curve]
